The supplement of paper PMC4604168 (melanoma cell lines)
Some of the results follow. Many values rest on one well or one pass, so single values are uncertain.

Assays:
Assay in all cases: cell count relative to DMSO control; melanoma cells; higher = more viable cells
Details in all cases: library dose: low library concentration; 72 h
WM115 = tested on: WM115
WM1716 = tested on: WM1716
WM1745 = tested on: WM1745
WM3526 = tested on: WM3526
WM3619 = tested on: WM3619
WM451Lu = tested on: WM451Lu
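Note: cell number obtained by counting DAPI-stained nuclei in high-throughput microscope images with image analysis software, screen run in 1,536-well plates.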

Compound	cell count (WM115) [%]	cell count (WM1716) [%]	cell count (WM1745) [%]	cell count (WM3526) [%]	cell count (WM3619) [%]	cell count (WM451Lu) [%]
Cc1cn(-c2cc(NC(=O)c3ccc(C)c(Nc4nccc(-c5cccnc5)n4)c3)cc(C(F)(F)F)c2)cn1 [nilotinib] + Cn1c(Nc2ccc(C(F)(F)F)cc2)nc2cc(Oc3ccnc(-c4ncc(C(F)(F)F)[nH]4)c3)ccc21 [CHIR265] (first compound 0.2 µM, partner dose 0.08 µM)	66.3	101	67.5	61.4	78.7	99.5
CC(C)C[C@H](NC(=O)[C@H](Cc1ccccc1)NC(=O)c1cnccn1)B(O)O [Bortezomib] + Cc1cc([N+](=O)[O-])ccc1NS(=O)(=O)c1cc(Cl)ccc1Cl [FH535] (first compound 0.001 µM, partner dose 1 µM)	88.1	28.6	62.2	78.4	16	113
Cn1c(=O)n(-c2ccc(C(C)(C)C#N)cc2)c2c3cc(-c4cnc5ccccc5c4)ccc3ncc21 + COc1cc2c(Oc3ccc4[nH]c(C)cc4c3F)ncnc2cc1OCCCN1CCCC1 [cediranib] (first compound 0.004 µM, partner dose 0.4 µM)	92.2	84.9	108	110	114	88.9
Cn1c(=O)n(-c2ccc(C(C)(C)C#N)cc2)c2c3cc(-c4cnc5ccccc5c4)ccc3ncc21 + COCC[n+]1c2c(n(Cc3cnccn3)c1C)C(=O)c1ccccc1C2=O [YM155] (first compound 0.004 µM, partner dose 0.0004 µM)	93	83.7	110	86.9	87.2	73.7
Cc1cc(Nc2cc(N3CCN(C)CC3)nc(/C=C/c3ccccc3)n2)n[nH]1 + C[C@]1(c2nc3c(C(N)=O)cccc3[nH]2)CCCN1 [Veliparib] (first compound 0.04 µM, partner dose 1.4 µM)	97.1	92	108	101	123	114
Cn1c(=O)n(-c2ccc(C(C)(C)C#N)cc2)c2c3cc(-c4cnc5ccccc5c4)ccc3ncc21 + OCc1c[nH]c2ccccc12 [Indole-3-carbinol] (first compound 0.004 µM, partner dose 0.8 µM)	96	98	104	87.7	78.6	101
Cc1cn(-c2cc(NC(=O)c3ccc(C)c(Nc4nccc(-c5cccnc5)n4)c3)cc(C(F)(F)F)c2)cn1 [nilotinib] + C#Cc1cccc(Nc2ncnc3cc(OCCOC)c(OCCOC)cc23)c1 [erlotinib] (first compound 0.2 µM, partner dose 0.8 µM)	103	94.2	85.1	106	95.3	106
Cc1cc(Nc2cc(N3CCN(C)CC3)nc(/C=C/c3ccccc3)n2)n[nH]1 + N#Cc1c(O)c2c(-c3ccc(-c4ccccc4O)cc3)csc2[nH]c1=O [A769662] (first compound 0.04 µM, partner dose 2 µM)	92.2	90.7	88.7	86.2	117	97.7
Cn1c(=O)n(-c2ccc(C(C)(C)C#N)cc2)c2c3cc(-c4cnc5ccccc5c4)ccc3ncc21 + C=CCn1c(=O)c2cnc(Nc3ccc(N4CCN(C)CC4)cc3)nc2n1-c1cccc(C(C)(C)O)n1 [MK1775] (first compound 0.004 µM, partner dose 0.02 µM)	75.8	61.6	86.1	83.2	75.3	101
Cc1cn(-c2cc(NC(=O)c3ccc(C)c(Nc4nccc(-c5cccnc5)n4)c3)cc(C(F)(F)F)c2)cn1 [nilotinib] + Cn1sc(=O)n(Cc2ccccc2)c1=O [TDZD-8] (first compound 0.2 µM, partner dose 0.4 µM)	105	122	92.8	115	133	109
CC(C)C[C@H](NC(=O)[C@H](Cc1ccccc1)NC(=O)c1cnccn1)B(O)O [Bortezomib] + COc1ccc2c(c1)CCC1C2CCC2(C)C(NCCCCCCN3C(=O)C=CC3=O)CCC12 [U73122] (first compound 0.001 µM, partner dose 0.4 µM)	105	23.8	60.5	90.6	18.5	84.1
Cc1cn(-c2cc(NC(=O)c3ccc(C)c(Nc4nccc(-c5cccnc5)n4)c3)cc(C(F)(F)F)c2)cn1 [nilotinib] + CN1CCN(c2ccc3nc(-c4c(N)c5c(F)cccc5[nH]c4=O)[nH]c3c2)CC1 [Dovitinib] (first compound 0.2 µM, partner dose 0.1 µM)	111	104	96.6	103	110	118
COc1ccc(C2=N[C@@H](c3ccc(Cl)cc3)[C@@H](c3ccc(Cl)cc3)N2C(=O)N2CCNC(=O)C2)c(OC(C)C)c1 [Nutlin-3] + CN1CCN(c2ccc3nc(-c4c(N)c5c(F)cccc5[nH]c4=O)[nH]c3c2)CC1 [Dovitinib] (first compound 0.1 µM, partner dose 0.1 µM)	86.6	105	76.9	108	83	111
Cc1cc(Nc2cc(N3CCN(C)CC3)nc(/C=C/c3ccccc3)n2)n[nH]1 + CC(=O)c1c(C)c2cnc(Nc3ccc(N4CCNCC4)cn3)nc2n(C2CCCC2)c1=O [palbociclib] (first compound 0.04 µM, partner dose 0.04 µM)	82.7	75.9	66.4	63	76.8	90.5
Cc1cc(Nc2cc(N3CCN(C)CC3)nc(/C=C/c3ccccc3)n2)n[nH]1 + Oc1nc(-c2ccc(C(F)(F)F)cc2)nc2c1CSCC2 [XAV939] (first compound 0.04 µM, partner dose 2 µM)	83.5	77.1	79.6	103	99.9	93.4
Cc1cc(Nc2cc(N3CCN(C)CC3)nc(/C=C/c3ccccc3)n2)n[nH]1 + O=C(O)[C@@H]1[O][Sb](=[O])([O][Sb]2(=[O])[O][C@H]([C@H](O)CO)[C@H](O)[C@H](C(=O)O)[O]2)[O][C@H]([C@H](O)CO)[C@@H]1O [stibogluconate] (first compound 0.04 µM, partner dose 2 µM)	98.6	104	84.6	88.3	106	93.4
COc1ccc(C2=N[C@@H](c3ccc(Cl)cc3)[C@@H](c3ccc(Cl)cc3)N2C(=O)N2CCNC(=O)C2)c(OC(C)C)c1 [Nutlin-3] + C[C@]1(O)C[C@@H](c2nc(-c3ccc4ccc(-c5ccccc5)nc4c3)c3c(N)nccn32)C1 [OSI906] (first compound 0.1 µM, partner dose 0.4 µM)	103	66	67.6	89	77	110
Cc1cc(Nc2cc(N3CCN(C)CC3)nc(/C=C/c3ccccc3)n2)n[nH]1 + CNC(=O)c1cc(Oc2ccc(NC(=O)Nc3ccc(Cl)c(C(F)(F)F)c3)cc2)ccn1 [sorafenib] (first compound 0.04 µM, partner dose 0.4 µM)	105	103	77.4	105	85.7	83.7
Cc1cn(-c2cc(NC(=O)c3ccc(C)c(Nc4nccc(-c5cccnc5)n4)c3)cc(C(F)(F)F)c2)cn1 [nilotinib] + C=CCNC1=C2C[C@@H](C)C[C@H](OC)[C@H](O)[C@@H](C)/C=C(\C)[C@H](OC(N)=O)[C@@H](OC)/C=C\C=C(/C)C(=O)NC(=CC1=O)C2=O [Tanespimycin] (first compound 0.2 µM, partner dose 0.002 µM)	97.9	97.4	86.2	117	91.3	123
Cc1cn(-c2cc(NC(=O)c3ccc(C)c(Nc4nccc(-c5cccnc5)n4)c3)cc(C(F)(F)F)c2)cn1 [nilotinib] + CS(=O)(=O)CCNCc1ccc(-c2ccc3ncnc(Nc4ccc(OCc5cccc(F)c5)c(Cl)c4)c3c2)o1 [lapatinib] (first compound 0.2 µM, partner dose 0.8 µM)	108	90	86.7	105	131	105
Cc1cn(-c2cc(NC(=O)c3ccc(C)c(Nc4nccc(-c5cccnc5)n4)c3)cc(C(F)(F)F)c2)cn1 [nilotinib] + C[C@]1(c2nc3c(C(N)=O)cccc3[nH]2)CCCN1 [Veliparib] (first compound 0.2 µM, partner dose 1.4 µM)	93.7	98.2	71.1	105	93.2	97.5
CC(C)C[C@H](NC(=O)[C@H](Cc1ccccc1)NC(=O)c1cnccn1)B(O)O [Bortezomib] + C=CCNC1=C2C[C@@H](C)C[C@H](OC)[C@H](O)[C@@H](C)/C=C(\C)[C@H](OC(N)=O)[C@@H](OC)/C=C\C=C(/C)C(=O)NC(=CC1=O)C2=O [Tanespimycin] (first compound 0.001 µM, partner dose 0.002 µM)	85.5	27.7	55.2	72.9	18.9	81.4
Cc1cn(-c2cc(NC(=O)c3ccc(C)c(Nc4nccc(-c5cccnc5)n4)c3)cc(C(F)(F)F)c2)cn1 [nilotinib] + Nc1ncn([C@H]2C[C@H](O)[C@@H](CO)O2)c(=O)n1 [decitabine] (first compound 0.2 µM, partner dose 0.1 µM)	93.8	90.4	93.3	114	92.7	95.4
COc1ccc(C2=N[C@@H](c3ccc(Cl)cc3)[C@@H](c3ccc(Cl)cc3)N2C(=O)N2CCNC(=O)C2)c(OC(C)C)c1 [Nutlin-3] + O=C(O)[C@@H]1[O][Sb](=[O])([O][Sb]2(=[O])[O][C@H]([C@H](O)CO)[C@H](O)[C@H](C(=O)O)[O]2)[O][C@H]([C@H](O)CO)[C@@H]1O [stibogluconate] (first compound 0.1 µM, partner dose 2 µM)	95	87.2	94.9	117	81.1	86.7
